# From the antibiotic and cytotoxicity screens of Wong et al. (2023)
# The list shows a part of the results.
# What was measured:
# [1] = system: HSkMC (human skeletal muscle cells); test: cytotoxicity call (relative viability < 0.9); conditions: 10 µM
# [2] = system: HepG2; test: cytotoxicity call (relative viability < 0.9); conditions: 10 µM
# [3] = system: S. aureus RN4220; test: growth inhibition call (relative growth <= 0.2); conditions: 50 µM
SMILES,cytotoxicity call [1],cytotoxicity call [2],growth inhibition call [3]
CO[C@H]1CN(C)C(=O)c2cc(NS(C)(=O)=O)ccc2OC[C@H](C)N(C(=O)c2ccc3c(c2)OCO3)C[C@@H]1C,inactive,inactive,inactive
COC(=O)c1nc[nH]c1C(=O)OC,inactive,inactive,inactive
C[C@@H]1CN([C@@H](C)CO)C(=O)c2cccc(NS(=O)(=O)c3ccccc3)c2O[C@@H]1CN(C)Cc1ccc(Oc2ccccc2)cc1,inactive,inactive,inactive
C[C@@H]1CN([C@@H](C)CO)C(=O)c2cc(NC(=O)Nc3ccc(F)cc3)ccc2O[C@@H](C)CCCCO[C@@H]1CN(C)C(=O)C1CCCCC1,inactive,inactive,inactive
C[C@@H]1CN([C@@H](C)CO)C(=O)c2cccc(NS(=O)(=O)c3cccs3)c2O[C@H]1CN(C)Cc1ccc(-c2ccccc2)cc1,inactive,inactive,inactive
C[C@@H]1CN([C@@H](C)CO)C(=O)Cc2cc(NC(=O)Nc3ccc(C(F)(F)F)cc3)ccc2O[C@@H]1CN(C)C(=O)Nc1ccc(C(F)(F)F)cc1,active,active,inactive
C[C@H]1CN([C@@H](C)CO)C(=O)c2cccc(NC(=O)Nc3ccc(F)cc3)c2O[C@@H]1CN(C)C(=O)Nc1ccc(C(F)(F)F)cc1,inactive,inactive,inactive
C[C@@H]1CN([C@H](C)CO)C(=O)c2cc(NS(=O)(=O)c3ccccc3)ccc2O[C@@H](C)CCCCO[C@@H]1CN(C)S(=O)(=O)c1cn(C)cn1,inactive,inactive,inactive
O=C(C[C@@H]1C=C[C@H](NC(=O)CN2CCOCC2)[C@@H](CO)O1)NC1CCCCC1,inactive,inactive,inactive
